According to PubChem BioAssay (NCI):
Several values for one entry are separate records, joined by “and”; a condition that tells them apart may be missing. Equal entries are not always repeated.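 Results reflect a 48-hour exposure of cells in 96-well plates to compound at five concentrations. Here, GI50 denotes the concentration required for 50% inhibition of growth. TGI marks complete inhibition of growth.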

Test system: NCI-H322M lung
Experiment: NCI anticancer screen, dose series, 48 h

Compound | GI50 | TGI
COc1ccc2[nH]c(-c3ccccc3)c(C=C(C#N)C#N)c2c1 | 7.39 µM | > 100 µM
O=C1c2ccc3c4c(ccc(c24)C(=O)N1CCCNCc1ccccc1)C(=O)N(CCCNCc1ccccc1)C3=O | 0.221 µM | 0.774 µM
CC(C)Oc1c(C2(c3ccccc3O)SCCCS2)c(=O)c1=O |  | > 100 µM
CC(C)(O)/C=C\P(C)(=O)c1ccccc1 (centres undefined) |  | > 100 µM
COc1cc(/C=C2\CCCC3C2=Nc2ccccc2NC3c2cc(OC)c(OC)c(OC)c2)cc(OC)c1OC (centres undefined) | 5.58 µM | > 100 µM
CC(=O)/C=C(/C=N/O)c1ccccc1 |  | > 100 µM
N#CC(c1ccccc1)N(CCc1ccccc1)C(=O)c1ccccc1 (centres undefined) |  | > 100 µM
Cc1ccc(/C=C/C(=O)C(C)C)cc1 |  | > 100 µM
O=C(O)CC(C(=O)O)C1c2ccccc2-c2ccccc21 (centres undefined) |  | > 100 µM
N#Cc1nc(Sc2cnsn2)c(Sc2cnsn2)nc1C#N |  | > 100 µM
OC(COc1cccc2ccccc12)CN1CCN(c2ccc(Cl)cc2)CC1 (centres undefined) | 27.5 µM | > 100 µM
Cc1ccc(-c2cn3c(nc4ccccc43)c(-c3ccccc3)n2)cc1 |  | > 100 µM
O=C(c1ccco1)c1ccccc1C(=O)c1ccco1 |  | > 100 µM
c1ccc(CCCNc2nnnc3ccccc23)cc1 |  | > 100 µM
Clc1ccccc1-c1nc(-c2ccncc2)no1 |  | > 100 µM
NC1=NN(c2ccccc2)C(=O)C1/C(=N\NC(=O)c1cc2ccccc2cc1O)C(=O)Nc1nc([N+](=O)[O-])cs1 (centres undefined) |  | > 100 µM
COc1ccc2[nH]c3c([N+](=O)[O-])ccc(Cl)c3c(=O)c2c1 |  | 99.8 µM
Cc1cc(C(=O)N[C@@H](CCC(=O)O)C(=O)O)sc1CC[C@@H]1CNc2nc(N)[nH]c(=O)c2C1 | 0.0592 µM | > 100 µM
O=C1NC(=O)[C@@H](OCC2CCCCC2)[C@@H]2OCC3OC(C(O)C3O)C12 (some centres undefined) |  | > 100 µM
c1ccc(CCCC2Sc3cccc4cccc(c34)S2)cc1 |  | > 100 µM
O=C(CCc1ccco1)NC1CCN(CC2(c3ccc(Cl)cc3)CCC2)CC1 | 17.6 µM | 39.6 µM
CN(C)CCNC(=O)c1cccc2cc([N+](=O)[O-])ccc12 | 1.11 µM and 0.268 µM | 12 µM and 1.55 µM
CC(C)c1cccc(C(C)C)c1NC(=O)C(=O)CC(=O)CC(c1ccccc1)c1c(O)c2ccccc2oc1=O (centres undefined) |  | > 100 µM
NCCn1ccc(NC(c2ccccc2)(c2ccccc2)c2ccccc2)nc1=O |  | 54.7 µM
O=C1CCc2nc3ncccc3cc2C1 |  | > 100 µM

Compound | GI50 | TGI
Clc1ccccc1C1N2CCCCC2[C@@H]2c3[nH]c4ccccc4c3CCN12 (some centres undefined) |  | 39.6 µM
C=C1C(=O)OC2/C=C(\C)C(=O)CC3OC(C)(C)OC3(C)CC(OC(=O)/C(C)=C/C)C12 (centres undefined) |  | > 100 µM
CCOC(=O)C12CCSC1C1(C#N)C(C#N)=CC2(N=P(c2ccccc2)(c2ccccc2)c2ccccc2)n2c(=O)n(-c3ccccc3)c(=O)n21 (centres undefined) |  | > 100 µM
COc1cc(C2=C(C)[C@@H]3CN(CC=C3c3ccc(Cl)cc3)C2)c(S(=O)(=O)O)cc1OC |  | > 100 µM
C=CC(=O)NCCOc1cccc(Nc2cc(NCCCNC(=O)C3CCC3)c(Br)cn2)c1 | 1.7 µM | 12.3 µM
COc1cc(OC)cc(-c2ccc(-c3ccc(C(=N)N)s3)s2)c1 | 1.6 µM | 3.42 µM
O=c1oc2ccccc2cc1-c1csc(Nc2cc(Cl)cc(Cl)c2)n1 |  | > 100 µM
CCOC(=O)/C(=C\c1ccnc2ccccc12)P(=O)(OCC)OCC |  | 13.4 µM
FC(F)(F)c1ccc2c(c1)nc(Cc1ccc(Cl)c(Cl)c1)n2CC1CCCN2CCCCC12 (centres undefined) |  | 33.8 µM
COc1cc2c(cc1O)[C@H](C)C(c1ccccc1OC)O2 (some centres undefined) |  | > 100 µM
COc1cc(OC)cc(-n2c(N)c(-c3nc4ccccc4s3)c3ccc([N+](=O)[O-])cc3c2=O)c1 |  | > 100 µM
CC1(C(=O)NCCN(CCNC(=O)C2(C)CC3(C)CC(C)(C2)C(=O)NC3=O)CCNC(=O)C2(C)CC3(C)CC(C)(C2)C(=O)NC3=O)CC2(C)CC(C)(C1)C(=O)NC2=O (centres undefined) |  | > 100 µM
OC12CC3c4ccccc4NC3C3Oc4cccc5c4C31CCN(CC1CC1)C2C5 (centres undefined) |  | 32.1 µM
CCN(CC)CCSc1n[nH]c(-c2c[nH]c3nc(C)ccc3c2=O)n1 |  | > 100 µM
CN(C)c1ccc(/C=C/c2ccnc3ccc4ccccc4c23)cc1 |  | > 100 µM
OC1CSCCCSCCSCCCSC1 |  | > 100 µM
O=C(/C=c1\oc(=O)/c(=C/C(=O)c2ccc(Cl)cc2)oc1=O)c1ccc(Cl)cc1 |  | > 100 µM
Fc1ccc2c(c1)SC1Oc3ccccc3-c3c1c-2nn3-c1ccccc1 (centres undefined) |  | > 100 µM
C=CCOc1ccc(C2(c3ccc(OCC=C)cc3)C(=O)Nc3ccccc32)cc1 |  | > 10 µM
COc1cc(/C=C/C=C2\CCC/C(=C\C=C\c3ccc(O)c(OC)c3)C2=O)ccc1O |  | 37.3 µM
NC(N)=NCc1ccc2c(c1)OCO2 |  | > 100 µM
N=C(N)c1ccc(-c2ccc(-c3cncc4ccccc34)s2)cc1F | 1.74 µM | 3.22 µM
CC(N)(Cc1c[nH]c2ccccc12)C(=O)O (centres undefined) | > 2500 µM | > 2500 µM
CN(CCCCN1CCCC1)CCCCN(C)C(=O)Cc1ccc(Cl)c(Cl)c1 |  | 32.3 µM
CCOc1ncn(-c2ccc(NC(=S)Nc3cnccn3)cc2)n1 |  | > 10 µM

Compound | GI50 | TGI
Nc1ccc(OCC(O)N2C(=O)c3ccccc3C2=O)cc1 (centres undefined) |  | > 100 µM
CCOc1ccccc1NC(=O)C(=O)C(C(=O)c1ccc2ccccc2c1)C1OC(=O)c2ccccc21 (centres undefined) |  | 56.7 µM
CC(=O)Nc1ccc(-c2nc3ccccc3s2)cc1Cl |  | > 100 µM
Nc1cc(S(=O)(=O)O)cc2cc(S(=O)(=O)O)c(N=Nc3ccc(-c4ccc(N=Nc5c(S(=O)(=O)O)cc6cc(S(=O)(=O)O)cc(N)c6c5O)cc4)cc3)c(O)c12 |  | > 100 µM
CC(OC1CC(=O)CC2C(=O)C=CC(=O)C12)c1ccccc1 (centres undefined) |  | > 54 µM
Clc1nc(Cl)c2ncn(C/C=C/Cn3cnc4c(Cl)nc(Cl)nc43)c2n1 | 25 µM | 58.9 µM
C/C(=N/NC(=S)N(C)CCc1ccccn1)c1cnccn1 |  | 15.5 µM
CC(C)(C)CC(C)(C)N(CSc1ccc(Cl)cc1)CSc1ccc(Cl)cc1 | 2.52 µM | 13.4 µM
COc1cc(/C=C2\N=C(c3ccccc3)N(c3nc4cc(C)c(C)cc4s3)C2=O)cc(OC)c1OC |  | > 100 µM
Cc1ccc(P(c2ccc(C)cc2)c2ccc(C)cc2)cc1 |  | > 100 µM
COc1ccc2c(c1)C(=O)c1c-2c(OCCN(C)C)nc2cc(OC)ccc12 | 1.36 µM | 4.42 µM
S=c1nc[nH]c2nc[nH]c12 | 4.6 µM and 18.9 µM | > 750 µM
COc1cccc(CCn2c(N)c(C(=O)O)c3ccc([N+](=O)[O-])cc3c2=O)c1 |  | > 100 µM
CCCCCCCCCCCCOC1C(CNCC2OC3OC(C)(C)OC3C2NC(=O)Nc2ccc(C(F)(F)F)cc2)OC2OC(C)(C)OC21 (centres undefined) | 7.44 µM | 15.6 µM
C=C(C)C(=O)OC1C(C(C)CCCO)=C(CO)CC2OC(=O)C(=C)C21 (centres undefined) |  | 69.9 µM
CSC1=Nc2c(c(C)c(-c3ccccc3)n2CCCCl)C2=NC(=O)CN12 | 9.77 µM | 24.3 µM
COc1ccccc1-c1ccc2nc(NC(=O)Nc3cc(C(F)(F)F)cc(C(F)(F)F)c3)sc2c1 | 2.78 µM | 9.06 µM
CN(C)CCn1c(=O)oc2cc(C(=O)CN3CCOCC3)ccc21 |  | > 100 µM
COc1cccc2c1nc1cccc(OC)c1[n+]2[O-] | 19.2 µM | 57.3 µM
CCOC(=O)NC(Nc1ccc(F)c(F)c1)(C(=O)OCC)C(F)(F)F (centres undefined) |  | > 100 µM
O=S(=O)(CC#CCCCOCC#Cc1ccccc1C#CCS(=O)(=O)c1ccccc1)c1ccccc1 | > 100 µM | > 100 µM
O=S(Nc1ccccc1)c1ccc(-c2ccccc2)cc1 (centres undefined) |  | > 100 µM
COC(=O)/C=C\[C@@H]1[C@H](C)N1S(=O)(=O)c1ccc(C)cc1 (some centres undefined) |  | > 100 µM
O=C(C[C@@]1(O)C(=O)Nc2c(Cl)ccc(Cl)c21)c1ccc(C2CC2)cc1 | 0.663 µM | 20.8 µM
Cc1cc2c(=O)cc(-c3ccc(C(F)(F)F)cc3)oc2c(C(=O)O)c1C |  | > 100 µM

Compound | GI50 | TGI
CC(O)CCNC(=O)Nc1c(C(F)(F)F)cc(-c2ccccc2)[nH]c1=O (centres undefined) |  | > 100 µM
CN(C)CCNC(=O)c1cccc2ccc(-c3cccnc3)nc12 |  | 32 µM
C=C(CN(C)C)C(=O)c1ccc(C)cc1C |  | 50.3 µM
COc1cccc2c1C(=O)c1c(O)c3c(c(O)c1C2=O)C[C@@](O)(C(=O)CO)C[C@@H]3OC1CC(OC(C)=O)C(OC(C)=O)C(C)O1 (some centres undefined) | 1.9 µM | 28.5 µM
COc1cc([N+](=O)[O-])c(S(=O)(=O)O)cc1N |  | > 100 µM
O=C(Nc1ccc(Cl)cc1F)c1cc(F)ccc1O | 0.751 µM | 9.6 µM
CN(C)C(=S)/N=c1\ssc(=S)n1-c1ccccc1 |  | > 100 µM
C=C1C(=O)CCC1C(=O)O (centres undefined) |  | > 100 µM
O=[N+]([O-])c1cc2c(cc1O)[nH]c1cccc([N+](=O)[O-])c12 |  | > 100 µM
COC(=O)C1=C([C@H]2COC(C)(C)O2)[C@H]2C[C@@H]1[C@@H]1OC(C)(C)O[C@@H]12 |  | > 100 µM
CC(C)(C)OC(=O)NNC(=O)C1Cc2ccccc2OC1=O (centres undefined) |  | > 100 µM
COc1cc(-c2nc3ccccc3[nH]2)ccc1OCC(=O)N=Nc1c(O)[nH]c2ccc(Cl)cc12 | 1.48 µM | 3.07 µM
COc1ccc(N2CCN(CN3CCN(c4ccc(OC)cc4)C3)C2)cc1 | > 100 µM | > 100 µM
O=c1c2cc(Br)ccc2nc(-c2ccccc2)n1NCC1(O)OCC(O)C(O)C1O (centres undefined) |  | > 100 µM
C[N+]1(C)CCOC(O)(c2ccccc2)C1 (centres undefined) |  | > 100 µM
CCN1CCC2(CC1)NC(=O)c1c(c3ccc(Cl)c(Cl)c3n1C)C2C#N (centres undefined) | 2.74 µM | 12 µM
Nc1ccc(-c2ccc(Nc3cc(S(=O)(=O)O)c(N)c4c3C(=O)c3ccccc3C4=O)cc2)c(S(=O)(=O)O)c1 |  | > 100 µM
COc1ccc2[nH]c3c(C)c4cc[n+](C)cc4c(C)c3c2c1 | 0.437 µM and 0.402 µM | 12.7 µM and 6.33 µM and 7.85 µM
NC(=S)N/N=C1\C(=O)N(CCc2ccccc2)C(=O)C1C(=O)NCCc1ccccc1 (centres undefined) |  | > 100 µM
Cc1ccc(/C=N/Nc2cc(C)c3ccccc3n2)s1 |  | 54.7 µM
CC(C)(C)OC(=O)N1CC(Cn2cc(C(F)(F)F)c3c(Cl)ncnc32)C1 | 1.8 µM | 3.26 µM
CSC1=C(C#N)C(=O)N(c2ccc(Cl)cc2)C(=O)C1C#N (centres undefined) |  | > 100 µM
Nc1ccc(C(=O)NN2C(=O)C(Cl)C2c2cc(Br)cc(Br)c2O)cc1 (centres undefined) |  | 92.4 µM
FC(F)(F)c1[nH]ncc1-c1nc2c(N3CCCCC3)cc3[nH]ncc3c2c2c1CCCC2 | 0.86 µM | 3.53 µM
CCOC(=O)CCSS(=O)(=O)C(F)(F)F |  | > 100 µM
